# Test results from PubChem BioAssay AID485273 (Sanford-Burnham Center for Chemical Genomics, 2010).
# The campaign covered roughly 330,000 compounds. About 1,500 (0.45%) were called active. Inconclusive results, whose numbers are uncertain, are shown with a selection of clear calls. Cut-off read from the data, not from the text of the source: active = inhibition above about 45% (passing the limit was not always enough); inconclusive = no clear call, values can overlap the other calls.
# Target: Ubiquitin-conjugating enzyme E2 N (Homo sapiens) (UniProt P61088)
# Chain of UniProt P61088 (P61088 whole entry, looked up): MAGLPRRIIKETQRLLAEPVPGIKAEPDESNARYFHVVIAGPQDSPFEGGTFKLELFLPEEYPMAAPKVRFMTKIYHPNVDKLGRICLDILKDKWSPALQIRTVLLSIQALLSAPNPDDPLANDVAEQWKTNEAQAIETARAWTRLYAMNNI
# Assay: UBC13 polyubiquitin chain formation inhibitors, primary screen, biochemical, TR-FRET, uHTS (AID 485273)
# Conditions: at 20 µM, stronger effect = higher value
row,SMILES,inhibition
1,Cc1nc2ccccc2nc1SCC(=O)N1CCC(C)CC1,inconclusive: 60.5%
2,CCOc1ccc(NC(=O)COC(=O)CCN2C(=O)C3CC=CCC3C2=O)cc1OCC (stereo not given),inactive: -2.9%
3,O=C(NCc1ccccn1)c1c(O)c2cccc3c2n(c1=O)CC3,inconclusive: 60%
4,O=C(c1ccc(Cl)nc1)c1cccs1,inconclusive: 73.8%
5,CN(C)S(=O)(=O)c1ccc(N2CCCC2)c(C(=O)Nc2nc3ccccc3s2)c1,inconclusive: 46.2%
6,CCOC(=O)c1ccc(NC(=O)c2sc3nc(N4CCOCC4)c4c(c3c2N)CCCC4)cc1,inconclusive: 66.5%
7,COc1cccc2sc3cc(NCc4ccc5c(c4)OCO5)ccc3c(=O)c12,inconclusive: 78.9%
8,CCc1ccc(NC(=O)COC(=O)Cn2cnc3ccccc32)cc1,inconclusive: 87.5%
9,Nc1c(C(=O)Nc2ccc(Cl)cc2)sc2nc(N3CCOCC3)c3c(c12)CCCC3,inconclusive: 82.5%
10,Cc1cccc(NC(=O)c2sc3nc(N4CCOCC4)c4c(c3c2N)CCCC4)c1,inconclusive: 81%
11,CN(Cc1ccc(Cl)c(Cl)c1)C(=O)c1cccc(S(=O)(=O)N2CCN(Cc3ccccc3)CC2)c1,active: 85.9%
12,COc1cccc(C#Cc2c(C=O)n(C)c3ccccc23)c1,inconclusive: 87.7%
13,COc1ccc2c(c1)[nH]c1c(Cl)ncnc12,inactive: 16.4%
14,COc1ccc(-n2cnc3c(cnn3CCC#N)c2=N)cc1,inconclusive: 70.3%
15,CN1CCC[C@@H]1CCNC(=O)c1cccc2c1C(=O)c1ccc(N3CCCC3)cc1S2(=O)=O,inactive: -118%
16,CCn1nc(C)cc1C(=O)N1CCCC(N2CCN(Cc3ccc4c(c3)OCO4)CC2)C1 (stereo not given),inactive: 6.2%
17,CCN(CC)CCn1c2c(c(SCC(=O)Nc3nc4ccccc4s3)nc1=O)CCCC2,inconclusive: 86.7%
18,COc1ccc2nc(SCc3cnc(C)nc3N)[nH]c2c1,inconclusive: 89.9%
19,N#Cc1ccsc1NC(=O)C1CCN(C(=O)c2ccc(Cl)cc2)CC1,active: 47.5%
20,O=C(O)c1ccc(Cn2c(=S)[nH]c3cc(Cl)ccc3c2=O)cc1,inconclusive: 50.7%
21,Cc1[nH]n2c(=O)cc(C(C)(C)C)nc2c1-c1ccccc1,inactive: -9.3%
22,Cc1nn(CC(=O)O)c(C)c1[N+](=O)[O-],inactive: 1.2%
23,CN1/C(=N\O)c2cccc3cccc1c23,inactive: 0.3%
24,CCCCOc1ccc(-c2c(C(=O)Nc3ccccc3)c(C)[nH]c(=S)c2C#N)cc1,inconclusive: 71.8%
25,O=C1CSC(c2cn(-c3ccccc3)nc2-c2cc3ccccc3oc2=O)N1Cc1ccco1 (stereo not given),inconclusive: 55%
